Measurements as given in the supplement of paper PMC6089552.
About 300 (9.4%) of roughly 3,200 compounds showed activity. Only a part is listed here, and it is no random draw.

System: A673/TR/shEF
Assay: cell viability (LOESS-normalised, relative to median of negative controls) (log2 ratio); higher = more viable cells (less compound effect), active = hit call of the paper (over 3 MAD below the median)
Settings: treatment time: 72 h
Summary of the method: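 Doxycycline, present or absent from 24 h before compounds, was used to induce EWS-FLI1 shRNA knockdown in A673/TR/shEF Ewing sarcoma cells at 1,500 per well in 384-well plates. Cells then received library compounds at two or more concentrations, or DMSO controls, for three days. Viability was measured by CellTiter-Glo luminescence on an Envision reader, and per-plate LOESS correction, division by the negative-control median and log2 transformation followed.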

[1] = 0.25 µM, library screen: screen1, EWS-FLI1 expression: high (no doxycycline)
[2] = 0.25 µM, library screen: screen1, EWS-FLI1 expression: low (doxycycline-induced shRNA knockdown)
[3] = 0.25 µM, library screen: screen2, EWS-FLI1 expression: high (no doxycycline)
[4] = 0.25 µM, library screen: screen2, EWS-FLI1 expression: low (doxycycline-induced shRNA knockdown)
[5] = 2.5 µM, library screen: screen1, EWS-FLI1 expression: high (no doxycycline)
[6] = 2.5 µM, library screen: screen1, EWS-FLI1 expression: low (doxycycline-induced shRNA knockdown)
[7] = 2.5 µM, library screen: screen2, EWS-FLI1 expression: high (no doxycycline)
[8] = 2.5 µM, library screen: screen2, EWS-FLI1 expression: low (doxycycline-induced shRNA knockdown)
[9] = 0.103 µM, library screen: screen3, EWS-FLI1 expression: high (no doxycycline)
[10] = 0.103 µM, library screen: screen3, EWS-FLI1 expression: low (doxycycline-induced shRNA knockdown)
[11] = 0.308 µM, library screen: screen3, EWS-FLI1 expression: high (no doxycycline)
[12] = 0.308 µM, library screen: screen3, EWS-FLI1 expression: low (doxycycline-induced shRNA knockdown)
[13] = 0.926 µM, library screen: screen3, EWS-FLI1 expression: high (no doxycycline)
[14] = 0.926 µM, library screen: screen3, EWS-FLI1 expression: low (doxycycline-induced shRNA knockdown)
[15] = 2.8 µM, library screen: screen3, EWS-FLI1 expression: high (no doxycycline)
[16] = 2.8 µM, library screen: screen3, EWS-FLI1 expression: low (doxycycline-induced shRNA knockdown)
[17] = 8.3 µM, library screen: screen3, EWS-FLI1 expression: high (no doxycycline)
[18] = 8.3 µM, library screen: screen3, EWS-FLI1 expression: low (doxycycline-induced shRNA knockdown)
[19] = 25 µM, library screen: screen3, EWS-FLI1 expression: high (no doxycycline)
[20] = 25 µM, library screen: screen3, EWS-FLI1 expression: low (doxycycline-induced shRNA knockdown)

Measured: cell viability (log2)

Oc1cc(O)c2c(c1)O[C@H](c1ccc(O)c(O)c1)[C@@H](O)C2
inactive: [1] 0.1 | [2] -0.0966 | [3] 0.194 | [4] 0.105 | [5] 0.117 | [6] 0.0971 | [7] 0.073 | [8] 0.0566

CCN(CC)CCOC(=O)C1(C2CCCCC2)CCCCC1
inactive: [1] 0.0984 | [2] 0.0928 | [3] 0.151 | [4] 0.0876 | [5] 0.266 | [6] 0.156 | [7] 0.136 | [8] 0.0918

O=c1cc(-c2ccccc2)oc2c(O)c(O)ccc12
inactive: [1] 0.189 | [2] -0.0108 | [5] 0.128 | [6] 0.0489

O=C1c2c(O)cccc2Cc2cccc(O)c21
inactive: [1] 0.0647 | [2] 0.0789 | [5] 0.0847 | [6] 0.13

C#CC(N)CCC(=O)O (stereo unspecified)
inactive: [3] -0.0331 | [4] -0.00776 | [7] 0.146 | [8] 0.0747

O=C1C[C@@H](c2ccccc2)Oc2cc(O)cc(O)c21
inactive: [1] 0.1 | [2] -0.031 | [5] 0.0675 | [6] -0.0933

COC(=O)C1=C(C)NC(C)=C([N+](=O)[O-])C1c1ccccc1C(F)(F)F (stereo unspecified)
inactive: [3] 0.112 | [4] 0.125 | [7] 0.175 | [8] 0.0692

COc1cc(C(=O)OCCCN2CCCN(CCCOC(=O)c3cc(OC)c(OC)c(OC)c3)CC2)cc(OC)c1OC
inactive: [3] 0.105 | [4] 0.0948 | [7] 0.199 | [8] 0.123

COc1ccc(-c2ccc3c(N4CCOC[C@@H]4C)nc(N4CCOC[C@@H]4C)nc3n2)cc1CO
active: [9] -0.268 | [10] -0.292 | [11] -0.621 | [12] -0.525 | [13] -1.05 | [14] -0.821 | [15] -1.66 | [16] -1.37 | [17] -1.89 | [18] -1.59 | [19] -1.94 | [20] -1.78

O=C(NC[C@H]1CN(c2ccc(N3CCOCC3=O)cc2)C(=O)O1)c1ccc(Cl)s1
inactive: [9] 0.0602 | [10] 0.0472 | [11] 0.05 | [12] -0.0342 | [13] 0.0339 | [14] 0.0765 | [15] -0.0103 | [16] -0.0135 | [17] 0.04 | [18] 0.0525 | [19] 0.00981 | [20] 0.0595

CC(C)c1c(O)c(-c2cc3c(c(C(C)C)c2O)CCC2C(C)(C)CCCC32C)cc2c1CCC1C(C)(C)CCCC21C (stereo unspecified)
inactive: [1] 0.108 | [2] 0.109 | [5] 0.0993 | [6] 0.112

C[C@@H]1C[C@H]2[C@@H]3C[C@H](F)C4=CC(=O)C=C[C@]4(C)[C@@]3(F)[C@@H](O)C[C@]2(C)[C@@]1(O)C(=O)CO
inactive: [1] 0.125 | [2] -0.264 | [5] 0.116 | [6] -0.238

CCCCCCCCCCCCCCCCOC[C@H](COCC(F)(F)F)OP(=O)(O)OC
inactive: [3] 0.136 | [4] 0.0651 | [7] 0.156 | [8] 0.0669

CCCCCCCCCCCCCCC[C@@H](O)[C@H](CO)NC(C)=O
inactive: [3] 0.176 | [4] 0.139 | [7] 0.0603 | [8] 0.124

CC[C@H](/C=C/[C@@H](C)[C@H]1CC[C@H]2[C@@H]3CC=C4C[C@@H](O)CC[C@]4(C)[C@H]3CC[C@]12C)C(C)C
inactive: [1] 0.0801 | [2] -0.0327 | [5] 0.107 | [6] 0.0318

CC1(C)CC2C1CCC1(CBr)CCC3C(CC(=O)O)C(=O)OC32C1 (stereo unspecified)
inactive: [1] 0.146 | [2] 0.038 | [5] 0.195 | [6] 0.152

CN1C2CCC1CC(OC(=O)c1c[nH]c3ccccc13)C2 (stereo unspecified)
inactive: [9] 0.0845 | [10] -0.0434 | [3] 0.133 | [4] 0.121 | [11] 0.0437 | [12] 0.102 | [13] 0.134 | [14] 0.0719 | [7] 0.136 | [8] 0.0412 | [15] 0.0507 | [16] 0.00358 | [17] -0.033 | [18] 0.0845 | [19] 0.0754 | [20] 0.0209

Cc1nnc(C(=O)NC(C)(C)c2nc(C(=O)NCc3ccc(F)cc3)c(O)c(=O)n2C)o1
inactive: [9] 0.13 | [10] 0.0901 | [11] 0.0867 | [12] 0.123 | [13] 0.2 | [14] 0.162 | [15] 0.101 | [16] 0.0695 | [17] 0.101 | [18] 0.124 | [19] 0.163 | [20] 0.12

CCC(C)CCCCC(=O)NC(CCNCS(=O)(=O)O)C(=O)NC(C(=O)NC(CCNCS(=O)(=O)O)C(=O)NC1CCNC(=O)C(C(C)O)NC(=O)C(CCNCS(=O)(=O)O)NC(=O)C(CCNCS(=O)(=O)O)NC(=O)C(CC(C)C)NC(=O)C(CC(C)C)NC(=O)C(CCNCS(=O)(=O)O)NC1=O)C(C)O (stereo unspecified)
inactive: [1] 0.117 | [2] 0.0486 | [5] 0.103 | [6] -0.0146

CCc1ccccc1OC[C@@H](O)CN[C@H]1CCCc2ccccc21
inactive: [3] 0.139 | [4] 0.00795 | [7] 0.162 | [8] 0.0146

COc1c2occc2cc2ccc(=O)oc12
inactive: 0.025 µM, library screen: screen2, EWS-FLI1 expression: high (no doxycycline) 0.0816 | 0.025 µM, library screen: screen2, EWS-FLI1 expression: low (doxycycline-induced shRNA knockdown) 0.0291 | [9] 0.114 | [10] -0.0228 | [1] 0.106 | [2] 0.087 | [3] 0.116 | [4] 0.0265 | [11] 0.108 | [12] 0.0766 | [13] 0.107 | [14] 0.0808 | [5] 0.267 | [6] 0.0328 | [7] 0.00648 | [8] 0.101 | [15] 0.114 | [16] 0.0915 | [17] 0.0523 | [18] 0.0351 | 25 µM, library screen: screen2, EWS-FLI1 expression: high (no doxycycline) 0.0896 | 25 µM, library screen: screen2, EWS-FLI1 expression: low (doxycycline-induced shRNA knockdown) 0.0776 | [19] 0.143 | [20] 0.0713

CC1(C)COC(CC(=O)O)CN1 (stereo unspecified)
inactive: [1] 0.11 | [2] 0.00312 | [5] 0.108 | [6] 0.0408

CN1CCN(C2=Nc3ccccc3Oc3ccc(Cl)cc32)CC1
inactive: [1] 0.0457 | [2] -0.0249 | [3] 0.2 | [4] 0.118 | [5] 0.0433 | [6] -0.00943 | [7] 0.165 | [8] 0.0787

Cc1onc(-c2c(Cl)cccc2Cl)c1C(=O)Nc1ccc(Br)cc1F
inactive: [1] 0.112 | [2] 0.103 | [5] 0.116 | [6] 0.0234

CN(Cc1cnc2nc(N)nc(N)c2n1)c1ccc(C(=O)N[C@H](CCC(=O)O)C(=O)O)cc1
inactive: [3] 0.209 | [4] 0.115 | [7] 0.0762 | [8] 0.165

CCCCCCCCCCCCCCCCCCOCC(O)CO (stereo unspecified)
inactive: [1] 0.0496 | [2] 0.117 | [5] 0.142 | [6] 0.0249

COc1ccccc1C1NC(=S)NC(C)=C1C(=O)Nc1cccc(Cl)c1 (stereo unspecified)
inactive: [1] 0.0961 | [2] 0.101 | [5] 0.0795 | [6] 0.0861

CCCCCc1c2c(cc(O)c1C(=O)O)OC(=O)c1c(cc(OC)cc1C(=O)CCCC)O2
inactive: [1] 0.114 | [2] 0.07 | [5] 0.16 | [6] 0.131

COC1=C[C@@H](C)[C@@H]2C[C@H]3OC(=O)C[C@H]4C(C)=C(OC)C(=O)[C@H]([C@@]2(C)C1=O)[C@@]34C
inactive: [1] 0.0742 | [2] 0.006 | [5] 0.146 | [6] 0.0264

N#Cc1ccc(C(c2ccc(C#N)cc2)n2cncn2)cc1
0.31: [19]
inactive: [9] 0.064 | [10] 0.0892 | [11] 0.0484 | [12] 0.0499 | [13] 0.01 | [14] 0.0721 | [15] 0.093 | [16] 0.0571 | [17] 0.064 | [18] 0.0674 | [20] 0.101

COc1ccc(-c2ccc(N)[n+](CCCC(=O)O)n2)cc1
inactive: [3] 0.167 | [4] 0.0773 | [7] 0.144 | [8] 0.0536

C=C1CC[C@H](O)C/C1=C/C=C1\CCC[C@]2(C)[C@@H]([C@H](C)CCCC(C)C)CC[C@@H]12
inactive: [1] 0.151 | [2] 0.125 | [5] 0.113 | [6] 0.0465

NC1(C(=O)O)CCCCC1
inactive: [3] 0.0492 | [4] 0.114 | [7] -0.0212 | [8] 0.0608

NNCCc1ccccc1
active: [7] -0.435 | [8] -0.392
inactive: [1] 0.0542 | [2] 0.11 | [3] 0.136 | [4] -0.0727 | [5] 0.2 | [6] 0.188

CC(=O)S[C@@H]1CC2=CC(=O)CC[C@]2(C)[C@H]2CC[C@@]3(C)[C@@H](CC[C@@]34CCC(=O)O4)[C@H]12
inactive: [1] 0.154 | [2] 0.0813 | [3] 0.207 | [4] 0.0952 | [5] 0.236 | [6] 0.233 | [7] 0.157 | [8] 0.0341

C#Cc1cccc(Nc2ncnc3cc(OC)c(OCCCCCCC(=O)NO)cc23)c1
inactive: [9] -0.0787 | [10] -0.0134 | [11] -0.0791 | [12] -0.0194
active: [13] -0.53 | [14] -0.197 | [15] -1.73 | [16] -0.607 | [17] -2.92 | [18] -0.618 | [19] -3.65 | [20] -1.64
